± gives the standard deviation of the averaged measurements. Restriction of a single-cycle SIVsab GFP reporter by TRIM5α v1-loop variants in CRFK cells. Human variants: read share among cells still uninfected after two challenges over input, higher = gained restriction. Rhesus variants: share among infected cells over input, higher = lost restriction. Reporter dose not given per row. No active / inactive call per row; the paper calls a change when both replicates lie above its controls (mean + 2 SD of stop or wild-type variants, or the top frameshift score). Residues outside the varied loop are taken from Swiss-Prot. The paper reads the human single-substitution scores as noise; they and the rhesus combinations repeat poorly (rank correlation 0.3 to 0.4), indel scores repeat only for the top variants, rhesus substitutions well (0.9).
tested on: SIVsab (simian immunodeficiency virus of sabaeus monkeys), single-cycle GFP reporter, in CRFK cells; assay: enrichment among uninfected cells over input (fold); higher = stronger restriction; conditions: library: human / rhesus combinations
Protocol: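 Pools of CRFK cells expressing variants of the TRIM5α v1 loop were challenged with the single-cycle reporter, sorted by GFP and sequenced; mean of two replicates.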

| Sequence | enrichment |
| --- | --- |
| MASGILVNVKEEVTCPICLELLTQPLSLDCGHSFCQACLTANHKKSMLDKGESSCPVCRISYQPENIRPNRHVANIVEKLREVKLSPEGQKVDHCARHGEKLLLFCQEDGKVICWLCERSQEHRGHHTFLTEEVAREYQVKLQAALEMLRQKQQEAEELEADIREEKASWKTQIQYDKTNVLADFEQLRDILDWEESNELQNLEKEEEDILKSLTNSETEMVQQTQSLRELISDLEHRLQGSVMELLQGVDGVIKRTENVTLKKPETFPKNQRRVFRAPDLKGMLEVFRELTDVRRYWVDVTVAPNNISCAVISEDKRQVSSPKPQIIYGARGTLFTFPSFVNFNYCTGILGSQSITSGKHYWEVDVSKKTAWILGVCAGFQPDAMCNIEKNENYQPKYGYWVIGLEEGVKCSAFQDSSFHTPSVPFIVPLSVIICPDRVGVFLDYEACTVSFFNITNHGFLIYKFSHCSFSQPVFPYLNPRKCGVPMTLCSPSS [human TRIM5α, 330-340 = GARGTLFTFPSFV] | 0.303 ± 0.18 |
| MASGILVNVKEEVTCPICLELLTQPLSLDCGHSFCQACLTANHKKSMLDKGESSCPVCRISYQPENIRPNRHVANIVEKLREVKLSPEGQKVDHCARHGEKLLLFCQEDGKVICWLCERSQEHRGHHTFLTEEVAREYQVKLQAALEMLRQKQQEAEELEADIREEKASWKTQIQYDKTNVLADFEQLRDILDWEESNELQNLEKEEEDILKSLTNSETEMVQQTQSLRELISDLEHRLQGSVMELLQGVDGVIKRTENVTLKKPETFPKNQRRVFRAPDLKGMLEVFRELTDVRRYWVDVTVAPNNISCAVISEDKRQVSSPKPQIIYGAPGTRFTFQSFVNFNYCTGILGSQSITSGKHYWEVDVSKKTAWILGVCAGFQPDAMCNIEKNENYQPKYGYWVIGLEEGVKCSAFQDSSFHTPSVPFIVPLSVIICPDRVGVFLDYEACTVSFFNITNHGFLIYKFSHCSFSQPVFPYLNPRKCGVPMTLCSPSS [human TRIM5α, 330-340 = GAPGTRFTFQSFV] | 0.131 ± 0.0087 |
| MASGILVNVKEEVTCPICLELLTQPLSLDCGHSFCQACLTANHKKSMLDKGESSCPVCRISYQPENIRPNRHVANIVEKLREVKLSPEGQKVDHCARHGEKLLLFCQEDGKVICWLCERSQEHRGHHTFLTEEVAREYQVKLQAALEMLRQKQQEAEELEADIREEKASWKTQIQYDKTNVLADFEQLRDILDWEESNELQNLEKEEEDILKSLTNSETEMVQQTQSLRELISDLEHRLQGSVMELLQGVDGVIKRTENVTLKKPETFPKNQRRVFRAPDLKGMLEVFRELTDVRRYWVDVTVAPNNISCAVISEDKRQVSSPKPQIIYQARGTLYQSFVNFNYCTGILGSQSITSGKHYWEVDVSKKTAWILGVCAGFQPDAMCNIEKNENYQPKYGYWVIGLEEGVKCSAFQDSSFHTPSVPFIVPLSVIICPDRVGVFLDYEACTVSFFNITNHGFLIYKFSHCSFSQPVFPYLNPRKCGVPMTLCSPSS [human TRIM5α, 330-340 = QARGTLYQSFV] | 0.00573 ± 0.0017 |
| MASGILVNVKEEVTCPICLELLTQPLSLDCGHSFCQACLTANHKKSMLDKGESSCPVCRISYQPENIRPNRHVANIVEKLREVKLSPEGQKVDHCARHGEKLLLFCQEDGKVICWLCERSQEHRGHHTFLTEEVAREYQVKLQAALEMLRQKQQEAEELEADIREEKASWKTQIQYDKTNVLADFEQLRDILDWEESNELQNLEKEEEDILKSLTNSETEMVQQTQSLRELISDLEHRLQGSVMELLQGVDGVIKRTENVTLKKPETFPKNQRRVFRAPDLKGMLEVFRELTDVRRYWVDVTVAPNNISCAVISEDKRQVSSPKPQIIYQAPGTRYPSFVNFNYCTGILGSQSITSGKHYWEVDVSKKTAWILGVCAGFQPDAMCNIEKNENYQPKYGYWVIGLEEGVKCSAFQDSSFHTPSVPFIVPLSVIICPDRVGVFLDYEACTVSFFNITNHGFLIYKFSHCSFSQPVFPYLNPRKCGVPMTLCSPSS [human TRIM5α, 330-340 = QAPGTRYPSFV] | 0.00996 ± 0.0096 |
| MASGILVNVKEEVTCPICLELLTQPLSLDCGHSFCQACLTANHKKSMLDKGESSCPVCRISYQPENIRPNRHVANIVEKLREVKLSPEGQKVDHCARHGEKLLLFCQEDGKVICWLCERSQEHRGHHTFLTEEVAREYQVKLQAALEMLRQKQQEAEELEADIREEKASWKTQIQYDKTNVLADFEQLRDILDWEESNELQNLEKEEEDILKSLTNSETEMVQQTQSLRELISDLEHRLQGSVMELLQGVDGVIKRTENVTLKKPETFPKNQRRVFRAPDLKGMLEVFRELTDVRRYWVDVTVAPNNISCAVISEDKRQVSSPKPQIIYGARGTLYTFPTLVNFNYCTGILGSQSITSGKHYWEVDVSKKTAWILGVCAGFQPDAMCNIEKNENYQPKYGYWVIGLEEGVKCSAFQDSSFHTPSVPFIVPLSVIICPDRVGVFLDYEACTVSFFNITNHGFLIYKFSHCSFSQPVFPYLNPRKCGVPMTLCSPSS [human TRIM5α, 330-340 = GARGTLYTFPTLV] | 0.556 ± 0.64 |

same assay, conditions: library: insertions and deletions

| Sequence | enrichment |
| --- | --- |
| MASGILVNVKEEVTCPICLELLTQPLSLDCGHSFCQACLTANHKKSMLDKGESSCPVCRISYQPENIRPNRHVANIVEKLREVKLSPEGQKVDHCARHGEKLLLFCQEDGKVICWLCERSQEHRGHHTFLTEEVAREYQVKLQAALEMLRQKQQEAEELEADIREEKASWKTQIQYDKTNVLADFEQLRDILDWEESNELQNLEKEEEDILKSLTNSETEMVQQTQSLRELISDLEHRLQGSVMELLQGVDGVIKRTENVTLKKPETFPKNQRRVFRAPDLKGMLEVFRELTDVRRYWVDVTVAPNNISCAVISEDKRQVSSPKPQIIYGARGTNYCTGILGSQSITSGKHYWEVDVSKKTAWILGVCAGFQPDAMCNIEKNENYQPKYGYWVIGLEEGVKCSAFQDSSFHTPSVPFIVPLSVIICPDRVGVFLDYEACTVSFFNITNHGFLIYKFSHCSFSQPVFPYLNPRKCGVPMTLCSPSS [human TRIM5α, 8-codon deletion at 335] | 0.691 ± 0.23 |
| MASGILVNVKEEVTCPICLELLTQPLSLDCGHSFCQACLTANHKKSMLDKGESSCPVCRISYQPENIRPNRHVANIVEKLREVKLSPEGQKVDHCARHGEKLLLFCQEDGKVICWLCERSQEHRGHHTFLTEEVAREYQVKLQAALEMLRQKQQEAEELEADIREEKASWKTQIQYDKTNVLADFEQLRDILDWEESNELQNLEKEEEDILKSLTNSETEMVQQTQSLRELISDLEHRLQGSVMELLQGVDGVIKRTENVTLKKPETFPKNQRRVFRAPDLKGMLEVFRELTDVRRYWVDVTVAPNNISCAVISEDKRQVSSPKGARGTRYQTFVNFNYCTGILGSQSITSGKHYWEVDVSKKTAWILGVCAGFQPDAMCNIEKNENYQPKYGYWVIGLEEGVKCSAFQDSSFHTPSVPFIVPLSVIICPDRVGVFLDYEACTVSFFNITNHGFLIYKFSHCSFSQPVFPYLNPRKCGVPMTLCSPSS [human TRIM5α, 5-codon deletion at 325] | 0.546 ± 0.25 |
| MASGILVNVKEEVTCPICLELLTQPLSLDCGHSFCQACLTANHKKSMLDKGESSCPVCRISYQPENIRPNRHVANIVEKLREVKLSPEGQKVDHCARHGEKLLLFCQEDGKVICWLCERSQEHRGHHTFLTEEVAREYQVKLQAALEMLRQKQQEAEELEADIREEKASWKTQIQYDKTNVLADFEQLRDILDWEESNELQNLEKEEEDILKSLTNSETEMVQQTQSLRELISDLEHRLQGSVMELLQGVDGVIKRTENVTLKKPETFPKNQRRVFRAPDLKGMLEVFRELTDVRRYWVDVTVAPNNISCAVISEDKRQVSSPKPGARGTRYQTFVNFNYCTGILGSQSITSGKHYWEVDVSKKTAWILGVCAGFQPDAMCNIEKNENYQPKYGYWVIGLEEGVKCSAFQDSSFHTPSVPFIVPLSVIICPDRVGVFLDYEACTVSFFNITNHGFLIYKFSHCSFSQPVFPYLNPRKCGVPMTLCSPSS [human TRIM5α, 4-codon deletion at 326] | 0.615 ± 0.024 |
| MASGILVNVKEEVTCPICLELLTQPLSLDCGHSFCQACLTANHKKSMLDKGESSCPVCRISYQPENIRPNRHVANIVEKLREVKLSPEGQKVDHCARHGEKLLLFCQEDGKVICWLCERSQEHRGHHTFLTEEVAREYQVKLQAALEMLRQKQQEAEELEADIREEKASWKTQIQYDKTNVLADFEQLRDILDWEESNELQNLEKEEEDILKSLTNSETEMVQQTQSLRELISDLEHRLQGSVMELLQGVDGVIKRTENVTLKKPETFPKNQRRVFRAPDLKGMLEVFRELTDVRRYWVDVTVAPNNISCAVISEDKRQVSSPKPQIIYGQIIYGARGTRYQTFVNFNYCTGILGSQSITSGKHYWEVDVSKKTAWILGVCAGFQPDAMCNIEKNENYQPKYGYWVIGLEEGVKCSAFQDSSFHTPSVPFIVPLSVIICPDRVGVFLDYEACTVSFFNITNHGFLIYKFSHCSFSQPVFPYLNPRKCGVPMTLCSPSS [human TRIM5α, 5-codon duplication at 326] | 0.428 ± 0.23 |
| MASGILVNVKEEVTCPICLELLTQPLSLDCGHSFCQACLTANHKKSMLDKGESSCPVCRISYQPENIRPNRHVANIVEKLREVKLSPEGQKVDHCARHGEKLLLFCQEDGKVICWLCERSQEHRGHHTFLTEEVAREYQVKLQAALEMLRQKQQEAEELEADIREEKASWKTQIQYDKTNVLADFEQLRDILDWEESNELQNLEKEEEDILKSLTNSETEMVQQTQSLRELISDLEHRLQGSVMELLQGVDGVIKRTENVTLKKPETFPKNQRRVFRAPDLKGMLEVFRELTDVRRYWVDVTVAPNNISCAVISEDKRQVSSPKPQIIYGARGTRYQTTGILGSQSITSGKHYWEVDVSKKTAWILGVCAGFQPDAMCNIEKNENYQPKYGYWVIGLEEGVKCSAFQDSSFHTPSVPFIVPLSVIICPDRVGVFLDYEACTVSFFNITNHGFLIYKFSHCSFSQPVFPYLNPRKCGVPMTLCSPSS [human TRIM5α, 7-codon deletion at 339] | 0.955 ± 0.94 |
| MASGILVNVKEEVTCPICLELLTQPLSLDCGHSFCQACLTANHKKSMLDKGESSCPVCRISYQPENIRPNRHVANIVEKLREVKLSPEGQKVDHCARHGEKLLLFCQEDGKVICWLCERSQEHRGHHTFLTEEVAREYQVKLQAALEMLRQKQQEAEELEADIREEKASWKTQIQYDKTNVLADFEQLRDILDWEESNELQNLEKEEEDILKSLTNSETEMVQQTQSLRELISDLEHRLQGSVMELLQGVDGVIKRTENVTLKKPETFPKNQRRVFRAPDLKGMLEVFRELTDVRRYWVDVTVAPNNISCAVISEDKRQVSSPKRGTRYQTFVNFNYCTGILGSQSITSGKHYWEVDVSKKTAWILGVCAGFQPDAMCNIEKNENYQPKYGYWVIGLEEGVKCSAFQDSSFHTPSVPFIVPLSVIICPDRVGVFLDYEACTVSFFNITNHGFLIYKFSHCSFSQPVFPYLNPRKCGVPMTLCSPSS [human TRIM5α, 7-codon deletion at 325] | 1.84 ± 1.4 |
| MASGILVNVKEEVTCPICLELLTQPLSLDCGHSFCQACLTANHKKSMLDKGESSCPVCRISYQPENIRPNRHVANIVEKLREVKLSPEGQKVDHCARHGEKLLLFCQEDGKVICWLCERSQEHRGHHTFLTEEVAREYQVKLQAALEMLRQKQQEAEELEADIREEKASWKTQIQYDKTNVLADFEQLRDILDWEESNELQNLEKEEEDILKSLTNSETEMVQQTQSLRELISDLEHRLQGSVMELLQGVDGVIKRTENVTLKKPETFPKNQRRVFRAPDLKGMLEVFRELTDVRRYWVDVTVAPNNISCAVISEDKRQVSSPKPQIIYGARGTRYQTGILGSQSITSGKHYWEVDVSKKTAWILGVCAGFQPDAMCNIEKNENYQPKYGYWVIGLEEGVKCSAFQDSSFHTPSVPFIVPLSVIICPDRVGVFLDYEACTVSFFNITNHGFLIYKFSHCSFSQPVFPYLNPRKCGVPMTLCSPSS [human TRIM5α, 8-codon deletion at 338] | 0.922 ± 0.48 |

From the supplement of paper PMC12230231
